# According to PubChem BioAssay AID1476 (National Center for Advancing Translational Sciences (NCATS), 2009):
# Where “and” joins values, the source holds several entries; their conditions need not be identical. Identical values can stand only once. In all, about 200,000 compounds went through this assay and about 4,500 (2.2%) were called active. The inconclusive results got no clear call from the source; some entries with a clear call stand among them for comparison. Calls follow the shape of the dose curve; as a rule, active = well fitted inhibition curve with a large enough effect; inconclusive = small, poorly fitted or top-dose-only effect, or effect the other way; inactive = flat fitted curve, though single readings scatter. A potency beside an inconclusive call is a rough fit, not a confirmed value.
# Target: Cruzipain (Trypanosoma cruzi) (UniProt P25779)
# Assay: qHTS Assay for Promiscuous and Specific Inhibitors of Cruzain (without detergent); also: nearly all actives have a fitted effect of over 40% in size;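 as to max response, negative = inhibition: plate controls were enzyme without inhibitor for no effect and buffer without enzyme for full effect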
# Settings: purified cruzain, Z-FR-AMC fluorescence, no detergent
# Procedure, shortened: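 Detergent-free condition (0.00005% Triton X-100) in acetate buffer pH 5.5 with DTT. 1.5 nM enzyme and compound were pre-mixed 15 min, then 2 uM Z-FR-AMC substrate added; reaction progress from fluorescence change between first and third reads (60 s).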
# Potency is read from the fitted curve at half-maximal effect; tags tell the direction and shape of the fitted curve.
# UniProt P25779, sequence (P25779 whole entry, looked up): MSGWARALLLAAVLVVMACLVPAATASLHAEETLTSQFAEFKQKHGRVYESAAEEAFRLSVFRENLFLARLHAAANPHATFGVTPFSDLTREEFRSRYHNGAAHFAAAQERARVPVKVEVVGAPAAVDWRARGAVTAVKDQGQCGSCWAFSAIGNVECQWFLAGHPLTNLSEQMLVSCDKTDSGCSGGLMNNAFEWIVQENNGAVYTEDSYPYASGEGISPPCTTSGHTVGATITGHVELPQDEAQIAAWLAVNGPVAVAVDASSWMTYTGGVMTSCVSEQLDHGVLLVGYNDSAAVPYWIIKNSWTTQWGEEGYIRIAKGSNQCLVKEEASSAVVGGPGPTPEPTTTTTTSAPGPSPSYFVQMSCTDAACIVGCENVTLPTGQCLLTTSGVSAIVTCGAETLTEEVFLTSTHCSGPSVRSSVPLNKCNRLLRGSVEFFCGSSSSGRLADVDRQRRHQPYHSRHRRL
Structure (SMILES),Potency,"max response, negative = inhibition"
CC(Nc1ncnc2nc[nH]c12)c1ccccc1 (centres undefined),"inconclusive: 7.94 µM [inhibitor, single point]",–
CCN1C(=O)c2ccccc2Sc2ccc(NC(=O)Cc3ccc(OC)c(OC)c3)cc21,"inconclusive: 31.6 µM [activator, single point]",–
CC1CCN(C(=O)CSc2nc3c(cnn3-c3ccc(Cl)cc3)c(=O)[nH]2)CC1,"inconclusive: 39.8 µM [inhibitor, single point]",–
CN1CCc2cc3c(cc2C1O)OCO3 (centres undefined),"inconclusive: 39.8 µM [inhibitor, single point]",–
COc1cccc(NC(=O)c2csc3c2CCCCC3)c1,–,inactive: -6.33%
N#Cc1c(N)n(CCNC(=O)c2cccs2)c2nc3ccccc3nc12,"inconclusive: 31.6 µM [activator, single point]",–
CC(C)N1C(=S)SC(C)(C)C1NO (centres undefined),–,inactive: 0.251%
Cc1ccc2nc(NC(=O)C3CCCN(S(=O)(=O)c4cccc5nsnc45)C3)sc2c1 (centres undefined),"inconclusive: 31.6 µM [inhibitor, single point]",–
COCCNC(=O)C(c1cccs1)N(C(=O)Cn1nnc2ccccc21)c1ccc(OC)cc1 (centres undefined),"inconclusive: 31.6 µM [activator, single point]",–
Cc1ccc(NC(=O)c2ccc(F)c(S(=O)(=O)NCCc3ccccc3)c2)cc1F,–,inactive: -11.6%
COc1ccc(C(=O)NCc2ccccc2)cc1S(=O)(=O)N1CCCc2ccccc21,"inconclusive: 31.6 µM [inhibitor, single point]",–
O=C(NCc1ccc(Cl)cc1)C(=O)NCC1OCCN1S(=O)(=O)c1ccc2c(c1)OCCO2 (centres undefined),"inconclusive: 39.8 µM [inhibitor, single point]",–
O=c1cc(O)nc(SC23CC4CC(CC(C4)C2)C3)[nH]1,"inconclusive: 39.8 µM [inhibitor, single point]",–
COCCn1c(CCC(=O)Nc2ccc(OC)c(OC)c2)nc2cccnc21,–,inactive: -17.8%
COc1ccc(N(C)C(=O)c2cnc(N3CCN(c4ncccn4)CC3)c3ccccc23)cc1,"inconclusive: 31.6 µM [activator, single point]",–
CN(CCOc1ccc(C[C@H](Nc2ccccc2C(=O)c2ccccc2)C(=O)O)cc1)c1ccccn1,"inconclusive: 15.8 µM [activator, single point] and inconclusive: 20 µM [activator, partial curve]",–
Cc1ccc(S(=O)(=O)N2CCN(C(=O)c3ccc(OCc4c(C)noc4C)cc3)CC2)cc1,"inconclusive: 31.6 µM [activator, single point]",–
Cc1ccc(-c2cc(-c3nnc(SCC(=O)N(C)CCC#N)n3N)c3ccccc3n2)cc1,"inconclusive: 31.6 µM [activator, single point]",–
Oc1csc(Cc2nc(-c3ccc4ccccc4c3)cs2)n1,"inconclusive: 39.8 µM [inhibitor, single point]",–
CCOC(=O)c1nnc(-c2ccccc2)nc1NCc1ccc(Cl)cc1,"inconclusive: 39.8 µM [activator, single point]",–

Structure (SMILES),Potency,"max response, negative = inhibition"
O=C(CSc1nnc(-c2c[nH]c3ccccc23)o1)N1c2ccccc2CCc2ccccc21,"inconclusive: 31.6 µM [inhibitor, single point]",–
O=C(Cn1cc(S(=O)(=O)c2ccccc2)c(=O)c2cc3c(cc21)OCO3)Nc1ccc(Cl)cc1,"inconclusive: 20 µM [inhibitor, single point]",–
O=C(CS(=O)(=O)c1cccc2nsnc12)N1CCN(c2cccc(C(F)(F)F)c2)CC1,"inconclusive: 39.8 µM [activator, single point]",–
Cc1ccc(N2C(=O)N(Cc3cc(=O)n4ccccc4n3)c3ccccc3S2(=O)=O)cc1Cl,–,inactive: 26.2%
O=C(CCn1c2c(c3ccccc31)CCCC2)NNC(=O)c1cccc([N+](=O)[O-])c1,"inconclusive: 39.8 µM [inhibitor, single point]",–
COCCCNC(=O)CNC(=S)N(Cc1cc(OC)c(OC)c(OC)c1)C1CCCC1,"inconclusive: 31.6 µM [activator, single point]",–
Cc1ccc([N+](=O)[O-])cc1S(=O)(=O)N1CCn2cccc2C1c1ccccc1 (centres undefined),"inconclusive: 31.6 µM [inhibitor, single point]",–
COc1ccc(N2CCN(Cc3cccn3-c3nnc(N4CCN(C5CCCCC5)CC4)s3)CC2)cc1,–,inactive: -8.38%
O=C(CSc1nnc(Cc2cccs2)n1-c1ccccc1)Nc1ccc2c(c1)OCCO2,"inconclusive: 31.6 µM [inhibitor, single point]",–
O=C(c1ccc2c(=O)n(C3CCCC3)c(=S)[nH]c2c1)N1CCc2ccccc21,"inconclusive: 39.8 µM [inhibitor, single point]",–
CCOC(=O)C1CCCN(c2nc3ccccc3nc2C(C#N)C(=O)OCCOC)C1 (centres undefined),"inconclusive: 39.8 µM [activator, single point]",–
Cn1cccc1Cc1nnc(SCC(=O)Nc2cccc(F)c2)n1-c1ccc(F)cc1,"inconclusive: 39.8 µM [activator, single point]",–
CCc1cccc(C)c1NC(=O)CCn1c(=O)c2cccn2c2ccccc21,"inconclusive: 39.8 µM [activator, single point]",–
COc1ccc(NC(=O)c2ccco2)cc1NC(=O)COc1ccc(Cl)c(C)c1,"inconclusive: 31.6 µM [activator, single point]",–
COc1ccc2c(c1)OC(=O)CC2c1ccccc1C (centres undefined),–,inactive: -2.13%
CCOC(=O)C1=C(C)N=C2SC(C)C(=O)N2C1c1ccc(OCC)c(OCC)c1 (centres undefined),"inconclusive: 39.8 µM [activator, single point]",–
CCCNC(=O)COC(=O)c1ccccc1C(=O)N(C)C1CCCCC1,–,inactive: -8.5%
N#CC1=C2N=C(N)c3ccccc3N2C2=C(C(=O)CCC2)C1c1cccc(Cl)c1 (centres undefined),"inconclusive: 39.8 µM [inhibitor, single point]",–
O=C(CN(C(=O)CSc1nc2ccccc2o1)c1ccccc1)NC1CCCCC1,–,inactive: -2.97%
